Reference: PubChem BioAssay AID463173 (ICCB-Longwood Screening Facility, Harvard Medical School, 2010)
Out of some 52,000 compounds screened, about 4,300 (8.3%) were called active. Rule as the data show it: active = survival mostly below about 52% (no sharp cut-off); inactive = mostly above about 56%. Some of the results follow.

The compounds below were run on DeltatarO mutant (assay: growth inhibition of S. aureus wild type versus tarO mutant, primary screen, teichoic acid synthesis inhibitors, RN4220, OD600 (AID 463173)). Conditions: OD600, 18 h, hits give low values, screened at 18.75 µg/mL (by protocol).

SMILES	survival
Cc1ccc(N2C(=O)C(CC(=O)Nc3ccc(F)cc3)N(CCC3=CCCCC3)C2=O)cc1 (stereo not drawn)	active: 55%
CCCCN1CC(c2nc3ccccc3n2CCCCOc2ccccc2C)CC1=O (stereo not drawn)	active: 34%
COc1ccc(OC)c(S(=O)(=O)NCCc2sc(-c3cccnc3)nc2C)c1	inactive: 87%
CCCN(Cc1cccs1)C(=O)Nc1cc(C)ccc1OC	inactive: 55%
O=C(c1ccc2c(c1)N(Cc1ccc(Cl)cc1)C(=O)c1ccccc1S2(=O)=O)N1CCCCCC1	inactive: 64%
CCc1nn(CC(=O)Nc2ccc(C)c(F)c2)c(=O)c2cc3cc(C)ccc3n12	inactive: 98%
COc1ccc(OC)c(CNC(=O)C2CCN(S(=O)(=O)N3CCCCC3)CC2)c1	inactive: 79%
Cc1ccc(-c2onc(C)c2C)cc1S(=O)(=O)NCc1cccs1	inactive: 91%
COc1ccccc1N1CCN(c2nc3ccc(C(=O)c4ccccc4)cc3n3c(C)nnc23)CC1	active: 46%
CCC(C(=O)NC1CCCC1)N(C(=O)c1snc(C(N)=O)c1N)c1ccccc1 (stereo not drawn)	inactive: 73%
Cc1ccc(NC(=O)c2nc(S(C)(=O)=O)ncc2N(Cc2ccco2)Cc2ccccc2F)c(C)c1	active: 37%
CCN(Cc1ccccc1)C(=O)CCS(=O)(=O)c1cc2c(cc1Cl)NC(=O)CO2	inactive: 91%
Cc1nc2scc(C)n2c(=O)c1S(=O)(=O)Nc1cccc(O)c1	inactive: 83%
NCCC(=O)N1c2ccccc2Sc2ccc(Cl)cc21	inactive: 87%
CCOc1ccc(OCC)c(NC(=O)c2nnn(Cc3cc(Br)ccc3OC)c2N)c1	inactive: 61%
COCCCNC(=O)c1cn(CC(C)C)c(=O)c2c1c1ccccc1n2C	inactive: 65%
COc1cc(OC)c(NS(=O)(=O)c2cc3c(cc2C)NC(=O)CO3)cc1Cl	inactive: 88%
CC(=O)c1ccc(N2CCN(C(=O)C3CCN(S(=O)(=O)c4ccc(Br)s4)CC3)CC2)cc1	inactive: 94%
COCCn1c(CNC(=O)c2cccc(N(C)C)c2)nc2cccnc21	inactive: 65%
COc1ccc2oc(=O)c(-c3nc(-c4cc(OC)c(OC)c(OC)c4)no3)cc2c1	inactive: 89%
O=C(CNS(=O)(=O)c1cccs1)N1CCN(c2ccccc2Cl)CC1	active: 45%
O=C(Cn1cc(SCc2cccc(F)c2)c2ccccc21)N1CCCC1	inactive: 56%

SMILES	survival
O=C(NC1CCCCCC1)c1ccc(Cl)c(S(=O)(=O)N2CCOCC2)c1	inactive: 86%
Cc1ccc(C(=O)Nc2ccc3nc(SCC(=O)N4CCc5ccccc54)sc3c2)cc1	inactive: 88%
Cc1ccc2c(CNCc3cccc(Cl)c3)c(C(=O)O)n(Cc3ccc(F)cc3Cl)c2c1	inactive: 70%
Cc1cc2oc(C(=O)Nc3sc4c(c3C(=O)NCc3ccco3)CCC4)cc(=O)c2cc1C	active: 38%
CCOC(=O)c1ccc(CN(Cc2ccc(F)cc2)S(=O)(=O)c2ccc(F)cc2)cc1	inactive: 87%
O=C(Nc1ccc(C(F)(F)F)cc1)c1cc(S(=O)(=O)NC2CCCCCC2)ccc1F	active: 25%
CCCOc1ccc(C2c3c(oc4ccccc4c3=O)C(=O)N2c2ccc(C)cn2)cc1OCC (stereo not drawn)	inactive: 73%
CCOC(=O)c1c(C)[nH]c(C)c1S(=O)(=O)N1CCC(C(=O)N2CCN(c3cccc(C)c3)C(C)C2)CC1 (stereo not drawn)	inactive: 113%
Cc1ccc(C)c(NC(=O)Nc2nnc(N(CC(C)C)CC(C)C)s2)c1	inactive: 85%
Cc1ccc(CCNC(=O)c2ccc3c(=O)n(-c4ccc(C)cc4)c(=O)[nH]c3c2)cc1	inactive: 82%
Cc1ccccc1S(=O)Cc1ccc(C(=O)NC2CCCCCC2)o1 (stereo not drawn)	inactive: 80%
CCOc1cccc2sc(NC(=O)c3ccc(S(=O)(=O)N4CCCc5ccccc54)cc3)nc12	inactive: 74%
Cc1ccc(C)c(NC(=O)C(CC(C)C)N2Cc3ccccc3C2=O)c1 (stereo not drawn)	inactive: 134%
Cc1cc(C)c2c(c1)c(C)cc1nnc(SCC(=O)c3ccccc3)n12	inactive: 75%
O=C(CSc1nccn1Cc1ccc(F)cc1)NCc1ccco1	inactive: 94%
CCCN1Cc2cccc(C(=O)Nc3cc(Cl)ccc3C)c2C1=O	inactive: 95%
CC(C)(C)c1ccc(C(=O)Nc2ccc(-c3nc4ccccc4o3)c(O)c2)cc1	inactive: 69%
O=C(CN1C(=O)c2ccccc2Sc2ccc(C(=O)N3CCOCC3)cc21)Nc1ccc(Cl)cc1F	inactive: 94%
CCOc1ccc(-c2nnc(SCC(=O)Nc3cccc(C#N)c3)o2)cc1	active: 48%
CCCCOC(=O)c1c(C)oc2c1cc(NS(=O)(=O)c1cc(OC)ccc1OC)c1ccccc12	inactive: 68%
CC1CCN(C(=O)Cn2c(-c3cccs3)cc3cc(Cl)ccc32)CC1	inactive: 78%
COc1cccc(NC(=O)Nc2ccc3c(c2)N(C)C(=O)c2ccccc2S3)c1	inactive: 51%

SMILES	survival
COc1ccc(-c2c(C)c3ccc(O)c(CN4CCOCC4)c3oc2=O)cc1OC	inactive: 129%
CCOc1ccc(-c2cc3c(=O)n(CC(=O)NCc4ccc(F)cc4)ccn3n2)cc1	inactive: 80%
COc1cccc2cc(-c3nc(-c4ccc(Cl)cc4)cs3)c(=O)oc12	inactive: 83%
CCOC(=O)c1cccc(NC(=O)CCS(=O)(=O)c2ccc3c(c2)CCN3C(=O)CC)c1	inactive: 85%
O=C(c1ccc(Cl)cc1)n1nc(-c2cccnc2)nc1NCc1ccc(F)cc1	active: 43%
COC(=O)c1oc2nc(C)cc(C)c2c1N	inactive: 78%
CCn1c(=O)c2sccc2n2c(CCCC(=O)N3CCN(c4ccc(F)cc4)CC3)nnc12	inactive: 96%
CCN(CC)c1ccc2cc(-c3nc4sc5c(c4c(=O)[nH]3)CCC(C(C)(C)C)C5)c(=O)oc2c1 (stereo not drawn)	inactive: 82%
O=C(NCc1ccco1)Nc1ccccc1	inactive: 94%
CCN1CCN(Cc2c(O)ccc3oc(C)c(C(=O)Nc4cccc(C(F)(F)F)c4)c23)CC1	inactive: 104%
COc1cccc(NC(=O)c2c(C)oc3nc(C)nc(N4CCCC4)c23)c1	inactive: 66%
COc1ccc(CC(=O)Nc2nc3c(s2)CCCC3)cc1	inactive: 95%
Cc1ccc2c(c1)N(C(=O)CCC(=O)NCc1cccc(F)c1)CC(C)O2 (stereo not drawn)	inactive: 78%
Cc1cccc(C)c1NC(=O)c1cc(S(=O)(=O)N2CCc3ccccc3C2)ccc1F	inactive: 129%
O=c1oc2ccccc2cc1-c1cn2cc(Cc3cc(Cl)ccc3Cl)sc2n1	active: 52%
COc1ccc(NC(=O)C2CCCN(S(=O)(=O)c3ccc(F)cc3)C2)cc1 (stereo not drawn)	inactive: 76%
CC(=O)N1CCN(C(=O)C2(NC(=O)Nc3ccc(C)cc3)CCCCC2)CC1	inactive: 102%
CCOc1ccc(N2C(=O)CC3(CC(C(=O)OCc4ccccc4)=NN3)C2=O)cc1 (stereo not drawn)	inactive: 76%
CCN(CC)S(=O)(=O)c1ccc2c(c1)N(CC(=O)Nc1cccc(C#N)c1)C(=O)CO2	inactive: 75%
CCc1nnc(NC(=O)CSc2nc3c([nH]c4ccccc43)c(=O)n2-c2ccc(Cl)cc2)s1	inactive: 93%
FC(F)(F)c1cc(-c2ccccc2)nc2cc(-c3ccccc3)nn12	inactive: 59%
Cc1ccc(O)c(NC(=O)C2=CC(c3ccco3)=NS(=O)(=O)N2C)c1	inactive: 87%

SMILES	survival
CCOC(=O)c1c(C)[n+]([O-])c2ccc3c(non3O)c12	inactive: 79%
COC(=O)c1ccc(NC(=O)C(=O)NCCc2csc(-c3ccc(F)cc3)n2)cc1	inactive: 117%
O=C(CSc1ncccc1C(=O)Oc1ccccc1Cl)Nc1ccc(C(F)(F)F)cc1Cl	inactive: 77%
COc1ccc(N2CCN(Cc3nc4c(c(=O)[nH]c(=O)n4C)n3Cc3ccccc3C)CC2)cc1	inactive: 119%
Cc1csc2nc(COC(=O)CNC(=O)c3ccccc3)cc(=O)n12	inactive: 78%
COc1ccc(NC(=O)CNC(=O)Cn2c(C)cc3ccccc3c2=O)c(OC)c1	inactive: 62%
O=C(c1ccccc1)N1CCN(CCc2ccccn2)CC1	inactive: 49%
CCOc1ccc(-n2cc(-c3ccccc3)c3c(Nc4cccc(F)c4)ncnc32)cc1	inactive: 85%
COC(=O)C1=C(C)Nc2ccccc2S1	inactive: 99%
COc1cccc(C(=O)Nc2c(C(=O)Nc3ccc(F)cc3)oc3ccccc23)c1OC	inactive: 60%
Cc1ccc(NC(=O)c2cnc(N3CCCC3)nc2C)cc1F	inactive: 89%
CCOc1ccc(C(=O)Nc2nnc(SCc3cc(=O)n4ccccc4n3)s2)cc1	inactive: 84%
Cc1cc(F)ccc1NC(=O)Cn1cc(S(=O)(=O)NC(C)C)c(S(=O)(=O)NC(C)C)c1	inactive: 90%
CCCCSc1nc2sc3c(c2c(=O)n1-c1ccccc1C)CC(C)(C)OC3	inactive: 48%
COc1ccccc1C(=O)Nc1nc2n(n1)C(c1ccc(F)cc1)C=C(c1ccc(Cl)cc1)N2 (stereo not drawn)	inactive: 49%
CCOC(=O)c1cc(S(=O)(=O)NCc2ccc(Cl)cc2)[nH]n1	inactive: 87%
CCc1ccc(CNC(=O)C2CCCN(c3nnc(C)c4c(C)n(-c5ccccc5)nc34)C2)cc1 (stereo not drawn)	inactive: 92%
COc1ccccc1C(=O)N/C(=C\c1cn(S(=O)(=O)N(C)C)c2ccccc12)C(=O)NCCCn1ccnc1	inactive: 102%
Cc1ccccc1CSc1ncc(Cl)c(C(=O)Nc2nc3ccc(F)cc3s2)n1	inactive: 100%
COc1ccccc1C(=O)Nc1ccc2nc(SCC(=O)N3CCCc4ccccc43)sc2c1	inactive: 86%
COc1ccc(OC)c(NC(=O)C2CCCN(S(=O)(=O)c3ccc4c(c3)CCCC(=O)N4)C2)c1 (stereo not drawn)	inactive: 97%
Cc1cc2n(n1)CCC(=O)N2Cc1ccc(C(=O)Nc2cc(Cl)ccc2C)cc1	inactive: 85%
